# In PubChem BioAssay AID1030 (National Center for Advancing Translational Sciences (NCATS), 2008):
# Among all 220,000 compounds or so, about 16,000 (7.3%) were called active. Inconclusive results, whose numbers are uncertain, are shown with a selection of clear calls. The call rests on the fitted dose curve; in most records, active means well fitted inhibition curve with a large enough effect (not every such curve was filed as active); inconclusive means small, poorly fitted or top-dose-only effect, or another doubt; inactive means no such curve, though single readings can be large or run the other way. Potencies of inconclusive entries are left out as doubtful fits.
# Target: Aldehyde dehydrogenase 1A1 (Homo sapiens) (UniProt P00352)
# Experiment: qHTS Assay for Inhibitors of Aldehyde Dehydrogenase 1 (ALDH1A1)
# Conditions: Purified ALDH1A1, NADH fluorescence, propionaldehyde substrate; series mostly up to 75.3 µM
# Potency means the concentration at half of the fitted maximal effect; tags describe the fitted curve by direction and shape.
# UniProt P00352, sequence (P00352 whole entry, looked up): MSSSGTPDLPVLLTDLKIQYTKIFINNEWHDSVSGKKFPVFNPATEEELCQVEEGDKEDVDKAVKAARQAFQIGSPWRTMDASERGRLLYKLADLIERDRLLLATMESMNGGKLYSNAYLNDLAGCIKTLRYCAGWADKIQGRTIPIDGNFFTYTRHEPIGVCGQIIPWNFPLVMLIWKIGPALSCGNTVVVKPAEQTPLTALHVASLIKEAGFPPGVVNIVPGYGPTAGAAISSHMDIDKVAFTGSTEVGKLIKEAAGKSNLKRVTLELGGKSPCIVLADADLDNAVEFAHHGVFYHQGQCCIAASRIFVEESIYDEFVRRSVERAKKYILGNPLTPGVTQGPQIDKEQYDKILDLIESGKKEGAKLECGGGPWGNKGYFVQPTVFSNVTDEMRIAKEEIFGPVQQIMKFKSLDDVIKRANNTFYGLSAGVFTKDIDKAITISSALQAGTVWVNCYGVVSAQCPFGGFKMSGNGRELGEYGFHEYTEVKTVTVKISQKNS
row,Compound,Potency
1,Cc1cc(-c2nc3ncccc3o2)ccc1NC(=S)NC(=O)c1ccco1,"inconclusive [inhibitor, partial curve]"
2,COC(=O)c1ccc(C(=O)OC)c(NC(=O)CSc2cccc[n+]2[O-])c1,"inconclusive [inhibitor, partial curve]"
3,CC(/C=N/n1c(-c2ccc(C)cc2)n[nH]c1=S)=C\c1ccco1,"inconclusive [inhibitor, single point]"
4,N#CCc1nc(-c2cc3ccccc3oc2=O)cs1,"inconclusive [inhibitor, partial curve]"
5,Cc1cc(Cl)ccc1NC(=O)C1CCN(S(C)(=O)=O)CC1,"inconclusive [inhibitor, partial curve]"
6,CC(NC(=S)Nc1ccc(OC(F)F)c(Cl)c1)C(C)(C)C (stereo not drawn),inactive
7,CC(C)CN(CCCNC(=O)CN1C(=O)COc2ccc(S(=O)(=O)N3CCCC3)cc21)CC(C)C,inactive
8,CCOC(=O)C1=NNC2C(=O)N(C3CCCCC3)C(=O)C12 (stereo not drawn),active: 12.6 µM
9,CC1(C)Cc2nc3sc(C(=O)NCCO)c(N)c3cc2CO1,"inconclusive [inhibitor, partial curve]"
10,Cc1cccc(-n2ncc3c(NCc4ccccn4)ncnc32)c1,"inconclusive [inhibitor, partial curve]"
11,Cc1cc(C)c2c(n1)sc1c(=O)n(-c3ccccc3)c(=O)[nH]c12,"inconclusive [inhibitor, partial curve]"
12,CCOc1ccccc1NC(=O)CSc1ccc([N+](=O)[O-])cc1,active: 20 µM
13,CC(=O)CSc1ccc(C(=O)O)cn1,inactive
14,COc1ccc(CCNC(=O)C2CCN(Cc3nc(-c4cccc(Cl)c4)oc3C)CC2)cc1OC,inactive
15,Cc1cc(C(=O)N2CCCC(C(=O)c3cccc(C(F)(F)F)c3)C2)nc(C)n1 (stereo not drawn),inactive
16,CCCNC(=O)c1cc2ccccc2c(=O)o1,"inconclusive [inhibitor, single point]"
17,Cc1cc(S(=O)(=O)Nc2ccccc2C(=O)O)ccc1F,"inconclusive [inhibitor, single point]"
18,c1ccc(-n2cc(CN3CCCC3)c(-c3ccc4c(c3)OCO4)n2)cc1,"inconclusive [inhibitor, partial curve]"
19,Cc1cc2c(s1)c1cnn(Cc3ccccc3F)c(=O)c1n2C,"inconclusive [inhibitor, full curve]"
20,Cc1ccc(C(CC(=O)N2CCOCC2)c2ccco2)cc1 (stereo not drawn),"inconclusive [inhibitor, single point]"
21,CCOC(=O)C1CCCCN1Cc1ccccc1C(F)(F)F (stereo not drawn),inactive
22,O=C(Nc1cc(Cl)ccc1O)c1snnc1-c1ccccc1,inactive
23,CCN1C(=O)C(O)(C2COC(C)(C)CC2=O)c2ccccc21 (stereo not drawn),"inconclusive [inhibitor, full curve]"
24,COc1ccc(C(=O)c2cc([N+](=O)[O-])ccc2N2CCCC2)cc1,inactive
25,O=C(NCc1ccc(F)cc1)c1c2c(nc3ccccc13)CCC2,inactive

row,Compound,Potency
1,COc1cc(C(c2c(C)[nH][nH]c2=O)c2c(C)[nH][nH]c2=O)ccc1OS(=O)(=O)c1ccccc1,active: 1.58 µM
2,Cc1nc(NC(=O)c2ccc(Cl)cc2)sc1Cc1ccc2c(c1)OCO2,"inconclusive [inhibitor, single point]"
3,O=C(Nc1ccccc1Br)c1c(F)cccc1Cl,inactive
4,CC1=C(C(=O)Nc2ccc(C)cc2)C(c2cccs2)NC(=S)N1 (stereo not drawn),"inconclusive [inhibitor, full curve]"
5,O=C(c1ccc(F)cc1)c1ccc(CN2C(=O)c3ccccc3C2=O)o1,"inconclusive [inhibitor, single point]"
6,CC(=O)CCc1oc2c([N+](=O)[O-])cccc2c1-c1ccc(C)o1,"inconclusive [inhibitor, single point]"
7,Cc1ccc(CN2CCN(Cc3ccccc3-c3ccco3)CC2CCO)o1 (stereo not drawn),inactive
8,CSC1=N/C(=C\c2cccc(F)c2)C(=O)S1,"inconclusive [inhibitor, single point]"
9,COc1ccc(NC2=C(C(C)=O)C(c3ccc4c(c3)OCO4)C(C(C)=O)C(C)(O)C2)cc1 (stereo not drawn),"inconclusive [inhibitor, single point]"
10,CCN1CCN(CC(=O)Nc2sc3c(c2C#N)CCC(C)C3)CC1 (stereo not drawn),"inconclusive [inhibitor, single point]"
11,Cn1nnc(NC(=O)c2ccc(C(C)(C)C)cc2)n1,inactive
12,CC(C)CC1(C(=O)NCC2CC2)C=CCN1C(=O)c1ccccc1 (stereo not drawn),active: 25.1 µM
13,COc1c2c(cc3c1C(c1c(O)c4ccccc4oc1=O)N(C)CC3)OCO2 (stereo not drawn),"inconclusive [inhibitor, partial curve]"
14,COc1ccccc1OCCn1cc(C(=O)c2ccco2)c2ccccc21,"inconclusive [inhibitor, partial curve]"
15,CC1(C)CC(=O)C2=C(C1)NC1=C(C(=O)c3ccccc31)C2c1cccnc1 (stereo not drawn),inactive
16,N#CC1=C(S)N(c2ccccc2)C(c2ccc(-c3cc(Cl)ccc3Cl)o2)NC1=O (stereo not drawn),"inconclusive [inhibitor, single point]"
17,Cc1noc(C)c1COc1cccc(C(=O)OC(C)C(=O)Nc2c(C)n(C)n(-c3ccccc3)c2=O)c1 (stereo not drawn),"inconclusive [inhibitor, single point]"
18,Cc1ccc(-c2cc(C(=O)O)c3cc(Br)ccc3n2)o1,"inconclusive [inhibitor, partial curve]"
19,O=S(=O)(Nc1ccc(S(=O)(=O)N2CCCCC2)cc1)c1ccc(Br)s1,active: 1.41 µM
20,CCOC(=O)C1CCc2nc3ccccc3c(=O)n21 (stereo not drawn),inactive
21,COc1cccc(S(=O)(=O)NCC(=O)Nc2ccc(C(C)(C)C)cc2)c1,"inconclusive [inhibitor, single point]"
22,CN(C)c1nc(OCCNC(=O)Nc2ccccc2)nc(N2CCOCC2)n1,inactive
23,CCn1c(-c2ccccc2)csc1=Nc1ccc(O)cc1,"inconclusive [inhibitor, single point]"
24,O=C(CSc1nncn1-c1ccccn1)Nc1cccc(Cl)c1,"inconclusive [inhibitor, single point]"
25,O=C1/C(=C\c2cccnc2)CN(Cc2ccccc2)C/C1=C\c1cccnc1,active: 7.94 µM

row,Compound,Potency
1,Cc1ccc(NC(=O)C(=O)c2cn(CC(=O)N3CCCCC3)c3ccccc23)cc1,"inconclusive [inhibitor, single point]"
2,COc1cc([N+](=O)[O-])ccc1NC(=O)NCc1ccco1,"inconclusive [inhibitor, single point]"
3,CC(C)C(=O)NC(Nc1cccc([N+](=O)[O-])c1)C(Cl)(Cl)Cl (stereo not drawn),"inconclusive [inhibitor, single point]"
4,COC(=O)c1ccc(C2C3=C(Nc4nnnn42)c2ccccc2OC3)cc1 (stereo not drawn),"inconclusive [inhibitor, single point]"
5,Cc1cc(-n2c(C)cc(C(=O)CSc3nnnn3-c3ccccc3)c2C)no1,active: 7.08 µM
6,Cc1nn(C)cc1NC(=O)c1cc2nc(-c3ccco3)cc(C(F)(F)F)n2n1,"inconclusive [inhibitor, single point]"
7,O=C(Nc1ccc(-c2nnc3n2CCCCC3)cc1)c1ccco1,"inconclusive [inhibitor, single point]"
8,c1ccc2sc(SN3CCOCC3)nc2c1,active: 3.98 µM
9,CC1=Nc2cc(C(=O)O)ccc2Sc2ccc(C)cc21,"inconclusive [inhibitor, single point]"
10,Cc1ccc(N2C(=O)[C@@H]3C(C(=O)C(c4ccccc4)c4ccccc4)=NN[C@@H]3C2=O)cc1,active: 22.4 µM
11,O=C(Cn1cnc2cc([N+](=O)[O-])ccc2c1=O)NCCc1ccc(F)cc1,active: 31.6 µM
12,Cc1sc2nc(CSc3ccccc3)nc(NCCN(C)C)c2c1C,"inconclusive [inhibitor, single point]"
13,COCCn1c(C)cc(C(=O)CSc2nc3ccccc3o2)c1C,inactive
14,CC(=O)CSc1nc2cc3c(cc2cc1C#N)OCCO3,"inconclusive [inhibitor, partial curve]"
15,O=c1[nH]c(/C=C/c2ccccc2OC(F)F)nc2c1cnn2-c1ccccc1,"inconclusive [inhibitor, partial curve]"
16,Fc1ccc(-c2csc3ncnc(Cl)c23)cc1,"inconclusive [inhibitor, partial curve]"
17,COc1ccc(-c2nnc(OCc3ccccc3)c3ccccc23)cc1,"inconclusive [inhibitor, single point]"
18,CCOC(=O)CC(=O)CSc1nc2c(cc1C#N)CCCCCC2,"inconclusive [inhibitor, partial curve]"
19,CCC(C)N=C1Sc2nc3ccc(C)cc3cc2CN1CCOC (stereo not drawn),active: 14.1 µM
20,CCOC(=O)c1ccc(NC(=S)Nc2ccccn2)cc1,inactive
21,O=C(c1cc(-c2ccccc2)nc2ccccc12)N1CCOCC1,"inconclusive [inhibitor, single point]"
22,CCCCc1c(C)nn(-c2nnc3c4ccccc4n(CC)c3n2)c1C,"inconclusive [inhibitor, partial curve]"
23,Cc1ccc(N2CSC3=C(C#N)C(c4cccs4)CC(=O)N3C2)cc1 (stereo not drawn),active: 8.91 µM
